From PubChem BioAssay (NCATS)
Inconclusive results, whose numbers are uncertain, are shown with a selection of clear calls. A potency beside an inconclusive call is a rough fit, not a confirmed value. Calls of active or inactive are those of the source. Unless noted, the call rests on the fitted dose curve; in most records, active means well fitted inhibition curve with a large enough effect; inconclusive means small, poorly fitted or top-dose-only effect; inactive means no such curve, though single readings can be large or run the other way.

What was measured:
[1] = target: Aldehyde dehydrogenase, mitochondrial (Homo sapiens) (UniProt P05091); assay: qHTS for Inhibitors of the Aldehyde Dehydrogenase Family (ALDH2) Confirmatory screens (AID 2061303; active means well fitted inhibition curve with a large enough effect; inconclusive means small, poorly fitted or top-dose-only effect; inactive means no such curve, though single readings can be large or run the other way; title and protocol of this record describe different tests; further: nearly all actives have a fitted effect of over 45% in size); settings: ALDH inhibition qHTS; activity change, negative = inhibition: at 45.4 µM (top of the series)
[2] = qHTS for Inhibitors of the Aldehyde Dehydrogenase Family (ALDH1A2, ALDH1A3, ALDH2, ALDH3A1) (AID 2061307); settings: ALDH inhibition qHTS; activity change, negative = inhibition: at 50.3 µM (top of the series) unless noted; further: nearly all actives have a fitted effect of over 50% in size; on potency: test system not described further here
[3] = target: Retinaldehyde dehydrogenase 3 (Homo sapiens) (UniProt P47895); assay: qHTS for Inhibitors of the Aldehyde Dehydrogenase Family (ALDH1A3) Confirmatory screens (AID 2061311); settings: activity change, negative = inhibition: at 46 µM (top of the series); further: nearly all actives have a fitted effect of over 60% in size
[4] = target: Retinal dehydrogenase 2 (Homo sapiens) (UniProt O94788); assay: qHTS for Inhibitors of the Aldehyde Dehydrogenase Family (ALDH1A2) Confirmation screens (AID 2061314); settings: activity, negative = inhibition: at 45.9 µM (top of the series) unless noted; further: nearly all actives have a fitted effect of over 65% in size
[5] = target: Aldehyde dehydrogenase 1A1 (Homo sapiens) (UniProt P00352); assay: qHTS for Inhibitors of the Aldehyde Dehydrogenase Family (ALDH1A1) Confirmatory screens (AID 2061316); settings: activity change, negative = inhibition: at 47.3 µM (top of the series); further: nearly all actives have a fitted effect of over 65% in size
Potency means the concentration at half of the fitted maximal effect; tags describe the fitted curve by direction and shape.

SMILES: NC(=O)c1ccnc2c(O)cccc12
- Potency [1]: inconclusive: 12.7 µM [inhibitor, partial curve, poor fit]
- Potency [2]: inconclusive: 0.178 µM [inhibitor, full curve]
- Potency [3]: inconclusive: 12.7 µM [inhibitor, partial curve]
- Potency [4]: inconclusive: 2.25 µM [inhibitor, full curve]
- Potency [5]: inconclusive: 10.1 µM [inhibitor, partial curve]

SMILES: Cc1ccc2c(c1)-c1c(cnn1CC(=O)N1CCN(c3cccc(C(F)(F)F)c3)CC1)CO2
- Potency [1]: inactive
- Potency [2]: active: 10 µM
- Potency [3]: inactive
- Potency [4]: inactive
- Potency [5]: inactive

SMILES: COc1cc(/C=C2\C(=O)Nc3ccccc32)ccc1O
- Potency [1]: inconclusive: 12.7 µM [inhibitor, partial curve]
- Potency [2]: inactive
- Potency [3]: inconclusive: 25.2 µM [inhibitor, partial curve]
- Potency [4]: inconclusive: 2.25 µM [inhibitor, full curve, poor fit]
- Potency [5]: inconclusive: 12.7 µM [inhibitor, partial curve]

SMILES: CN(C)CCCNc1ccc(NC(=O)c2cccs2)cn1
- Potency [1]: inconclusive: 10.1 µM [inhibitor, partial curve]
- Potency [2]: inactive
- Potency [3]: inconclusive: 22.5 µM [inhibitor, single point]
- Potency [4]: active: 5.65 µM
- Potency [5]: inconclusive: 11.3 µM [inhibitor, partial curve, poor fit]

SMILES: O=C(Nc1ccc([S+](=O)([O-])Nc2nccs2)cc1)c1ccccn1
- Potency [1]: inactive
- Potency [2]: inconclusive: 14.1 µM [inhibitor, single point]
- Potency [3]: inconclusive: 10.1 µM [inhibitor, partial curve]
- Potency [4]: inconclusive: 2.52 µM [inhibitor, full curve]
- Potency [5]: inactive

SMILES: N[C@@H](CC(=O)O)C(=O)Nc1ccc(Cl)cc1C(=O)c1ccc[nH]1
- Potency [1]: inactive
- Potency [2]: inactive
- Potency [3]: inconclusive: 14.2 µM [inhibitor, partial curve]
- Potency [4]: inconclusive: 12.7 µM [inhibitor, partial curve]
- Potency [5]: inactive

SMILES: CC(C)(C)OC(=O)NCCOCCOCCOCCn1ncc2c1CCCC2NC(=O)c1ccccn1 (stereo not given)
- Potency [1]: inconclusive: 7.12 µM [inhibitor, partial curve, poor fit]
- Potency [2]: inactive
- Potency [3]: inconclusive: 25.2 µM [inhibitor, partial curve]
- Potency [4]: inconclusive: 11.3 µM [inhibitor, partial curve]
- Potency [5]: inconclusive: 22.5 µM [inhibitor, partial curve, poor fit]

SMILES: Cc1ccc2nc3sc(C(=O)Nc4ccncc4)cc3cc2c1
- Potency [1]: inconclusive: 7.12 µM [inhibitor, partial curve, poor fit]
- Potency [2]: active: 11.3 µM
- Potency [3]: inconclusive: 20.1 µM [inhibitor, partial curve]
- Potency [4]: inconclusive: 15.9 µM [inhibitor, partial curve, poor fit]
- Potency [5]: active: 14.2 µM

SMILES: COc1cccc(CNc2ccc(S(=O)(=O)Nc3cccc4ccncc34)cc2)c1O
- Potency [1]: inconclusive: 11.3 µM [inhibitor, partial curve, poor fit]
- Potency [2]: inconclusive: 11.3 µM [inhibitor, partial curve]
- Potency [3]: active: 22.5 µM
- Potency [4]: inconclusive: 11.3 µM [inhibitor, partial curve]
- Potency [5]: inactive

SMILES: COc1ccc(C2Nc3ccccc3C(=O)N2Cc2ccccc2)cc1COc1ccc(C)cc1 (stereo not given)
- Potency [1]: active: 3.98 µM
- Potency [2]: inconclusive: 12.7 µM [inhibitor, partial curve]
- Potency [3]: inconclusive: 11.2 µM [inhibitor, full curve]
- Potency [4]: active: 5.65 µM
- Potency [5]: inconclusive: 8.96 µM [inhibitor, partial curve]

SMILES: COC(=O)c1ccc(NC(=O)CN2CCN(c3ccc(Cl)cc3)CC2)cc1
- Potency [1]: active: 18.2 µM
- Potency [2]: inconclusive: 25.7 µM [inhibitor, single point]
- Potency [3]: inconclusive: 17.8 µM [inhibitor, partial curve, poor fit]
- Potency [4]: active: 18.2 µM
- Potency [5]: inconclusive: 20.5 µM [inhibitor, partial curve]

SMILES: COc1cccc(N2CCN(c3nc(C(=O)NCc4cccc(C)c4)cs3)CC2)c1
- Potency [1]: inactive
- Potency [2]: inconclusive: 5.76 µM [inhibitor, full curve]
- Potency [3]: inactive
- Potency [4]: inactive
- Potency [5]: inconclusive: 7.26 µM [inhibitor, full curve]

SMILES: O=C([C@H](Cc1ccc(O[S+](=O)([O-])c2cccnc2)cc1)N[S+](=O)([O-])c1cccc2cnccc12)N1CCN(c2ccccc2)CC1
- Potency [1]: inconclusive: 1 µM [inhibitor, full curve, poor fit]
- Potency [2]: inactive
- Potency [3]: inconclusive: 0.1 µM [inhibitor, full curve, poor fit]
- Potency [4]: inconclusive: 4 µM [inhibitor, full curve]
- Potency [5]: inconclusive: 35.5 µM [inhibitor, partial curve]

SMILES: Cc1ccc(-c2cc(C(=O)Nc3ccc(-c4noc(=O)[nH]4)cc3)c3ccccc3n2)cc1C
- Potency [1]: inconclusive: 7.94 µM [inhibitor, full curve, poor fit]
- Potency [2]: active: 7.08 µM
- Potency [3]: active: 11.2 µM
- Potency [4]: inactive
- Potency [5]: inactive

SMILES: O=C(Cc1ccc(F)cc1)Nc1cccc(-c2nc3cccnc3s2)c1
- Potency [1]: inconclusive: 7.94 µM [inhibitor, full curve, poor fit]
- Potency [2]: inactive
- Potency [3]: inactive
- Potency [4]: inactive
- Potency [5]: inactive
